Measured values: the supplement of paper PMC10185492
This is one part of the list. These are enrichments in a pooled selection; single values are uncertain.

What follows are substances tested on SARS-CoV-2 3CLpro (nsp5) (assay: substrate phage enrichment score (protease-eluted vs HEPES control, +1 offset) (ratio); higher = better cleaved substrate). Conditions: selection round: 4; protease elution time: 15 min.
Method: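 Random heptapeptide substrate phage display (M13 pIII fusion, heptapeptide between an N-terminal biotinylated AviTag GLNDIFEAQKIEWHE and pIII; phages immobilised on streptavidin) eluted by cleavage with 50 nM protease in 20 mM HEPES at 37 °C. Selected phages were NGS sequenced, and the enrichment score is (reads in protease sample + 1)/(reads in HEPES blank-selection control + 1).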

Substance | substrate phage enrichment score
FAPTPHV | 5.12
DHSVPLR | > 22
ARPSDVT | > 26
ARLDEVT | 0.304
KPVDVSR | > 137
CSREVPV | > 37
WYLTPNR | 0.867
SLHSNRE | 0.222
NQPSKPA | 1.85
SHRTPTG | > 30
RCRLHST | 11.5
NKRLPRN | 0.812
PRAAHHH | 1.52
CSSKRPA | 2.96
CKTGTEL | > 24
PTRPSSR | 3.42
PYPAAHH | > 183
GNLYNRQ | > 24
LDPSRVG | > 22
QDSIMKG | > 33
RHLSPDR | > 29
RPGPQEQ | 1
ACMANEN | > 34
PKQYNEQ | 0.19
PSFYGEP | 8

Substance | substrate phage enrichment score
CIFHAPE | 2.58
RCLPSRP | 3.22
KPTSLLD | 1.21
SPANMSV | 0.0606
ACKYNRQ | > 114
CTRPLPG | 64.5
CKNGTYA | > 28
WCTPNAR | 2.83
VNQRLNP | 47
NQTSGRH | > 30
FPPGAPR | > 22
AQLQSGF | > 21
SKYGVLG | > 31
YSAAAHH | 1.17
QTEPTII | 3.15
ANCWPPR | 2.31
APERGAP | 1.89
LNWRVTT | 9
KDQLTPN | > 21
RRCNISR | 0.82
PHVSKPA | 7.86
IRCGMQR | > 25
DAAVLQA | > 39
LNNDSLG | 1.46
PWQNGTR | 3

Substance | substrate phage enrichment score
DSGSVCE | > 181
TRCNAAG | 2
PHCTHLK | > 22
RDQQLNR | 3.52
ECATNQY | 3.17
ADCLPGA | 0.692
NGQFSSP | 1
NDHTELQ | > 292
RSISCPE | 1
GKCSLQS | 32
RMMPNKH | > 46
TAAPVFQ | > 67
TTESTPP | 2.29
AETGTGH | 1.87
DTLMPNR | > 29
LWRHGMP | > 56
NPSTRLQ | 13
PAPRATT | 2.11
KYFQGGS | 0.902
CETVQPT | > 124
SCHRAEF | > 21
AQSPTLQ | > 124
DNIVTGC | 5.5
KSGAGAC | 5.6
LQQKFIQ | 96

Substance | substrate phage enrichment score
LHEMNRQ | 4.8
THNSNVR | > 22
KKNNAYR | 3.88
AHTATLQ | > 21
NRFFQGG | 9.33
SDWTLGN | 2.11
TPYCSNT | 8.71
LRAAHHH | 0.579
ESSGPSI | 1.31
CQRVTKP | 3.04
CFLLRKS | > 32
KGLEHGK | 1.25
GRLIFMG | > 50
CLKTPSA | > 21
STLPQVS | 1.17
SSAIPRH | > 21
PHANCRQ | > 21
VLGRFVR | > 39
YGACQPT | 2.56
FHTQLQC | > 80
LRLRLFR | 11.3
CEVRTRT | 1.2
RSETSTD | > 22
GRWPSPR | 0.182
EESANAH | 3.38

Substance | substrate phage enrichment score
QNQYVTY | 2.36
RAPAILQ | 216
GPNTKLQ | > 167
QLNEAGH | > 100
CHSKVVT | 0.571
TATAHHH | 0.579
KQGGDPQ | 1.16
AGLSHLQ | > 52
TWSQSMS | > 21
WPTDVTN | 3.22
QKRTPGN | 0.16
PAYKSDR | > 21
HEKKDDG | 0.381
PGGQRTS | 3.6
RHLNSSD | 5.57
VRCRLQA | > 659
NTTNNWR | > 22
TRSFGQP | 0.381
DNNVQAA | 0.6
ASTSGPN | 13.3
GWFYSAR | > 37
TPSTTTL | > 37
TASRSSR | 1.5
SAAAHHL | 1.14
ATAVLQS | > 76

Substance | substrate phage enrichment score
GSRCRTP | 3.43
ENEPDSY | 2.46
QYGYSEH | > 42
ERTRYSR | 0.815
CLTRCSY | 0.632
QPSTILQ | > 21
QAGSLHR | 1.56
GCTQAAG | 1.15
HGAKLCP | 2.6
TNSFHMN | 3.6
PTKPCGP | > 23
HNIRTTD | 0.0129
AIPVWQA | 1.82
LFFQGGS | 10
ECDTDQA | 1.56
TGSAAAH | 1.25
LSFQGGS | 1.63
SQPSLLQ | 11.5
TYLQSAT | > 36
APCRLGY | > 37
GHYENVG | 12
ALMHSEP | 10
CLRTILQ | > 22
ARNLQGP | 3
GKLHSQG | 0.619

Substance | substrate phage enrichment score
LEHCLCS | 1.07
ESAAAHH | 0.68
FQMKEYG | 1.23
HVLYEPM | > 61
CSLYGSN | 1.45
YSKYCRC | > 21
GQPKRDC | 3.57
RAKSDAS | 0.114
ATFGSDR | 1.79
HLEYWRY | > 32
TTDSCVR | 5.5
VELDGVR | 12.5
CSYSQSR | 2.7
KWQGSVI | > 32
THAHCGD | 0.833
PYLKQGW | 1.44
ANTCSPS | > 21
ASCKPIR | 9.2
RAQPQHQ | 8.67
CPRHNSN | 2.73
RPGLQSA | 11
LNAVDCR | 3.4
TRSKVNG | > 24
RACREFR | 1.4
EGPSEKT | 1.4

Substance | substrate phage enrichment score
RQRCDLH | 3.69
DRWMRDE | 2.2
EPDMPMG | > 27
RTEPSGR | > 28
PAMPYVR | > 37
NNAAAHH | 1.35
CLRGTAE | > 22
RHVEPNG | 6.67
GEELSSK | 1.82
VPPAELT | 1.2
YCSSRSA | 1.78
AQKQASE | 3
YPSENAQ | 1
EKYPCIG | > 21
SYQCHLN | 1.27
PKWVCSE | 5.71
HPYQLNE | > 23
DTAAAHH | 0.324
EGKPYLQ | > 22
VAVRLQS | > 31
RTFSRLQ | > 94
KGSPTLQ | > 140
TQVSQLQ | > 23
VRPHINI | 0.712
SGLPTLQ | > 24

Substance | substrate phage enrichment score
ATRSRLQ | > 211
RSDEDLT | 10
MRPTKHT | 8.25
TPAGSRR | 3.17
PNEDGCR | 1.6
QLPSTNR | > 35
YGQRRPE | 0.146
SQDTWTG | 1.88
DSIQLQS | 11.5
CILQGGS | 33
IGGSAAA | 0.368
ISQARER | > 21
NAGFMTR | > 22
KCYCVLQ | > 32
SERKPPQ | 1.33
SGRAIMQ | > 32
GSRLGNP | 9.67
EQSTIRG | 2.83
KTNSSER | > 25
ITAAHHH | 0.977
PAQDCKR | > 26
AHFLGPQ | > 25
AYHQPMT | 0.714
PSGGARQ | 1.69
APGASGQ | 4

Substance | substrate phage enrichment score
RLNHCGA | 0.826
AAAPCVN | 0.263
ARDSWAW | 4
CEQLDVK | 1.7
TRCRSDG | 0.429
SETTILQ | > 30
GTSTQLH | > 56
CLSSQAR | 2.83
LFLNRYQ | > 31
HLDGKDR | > 21
KAGLRQN | 0.103
VNDCNPS | 2.75
QPTVATQ | > 24
SLNQSGN | 0.857
LLPGHPK | 2.25
CPKTHLQ | > 22
LRNGARA | 5.78
GSRVLCR | > 29
NYSFDLN | > 32
FTAECAS | > 36
HCLLHAD | 11
VGTSCNA | > 22
GTAGCWR | 1.5
RMVCPET | 1.47
QHNSESS | 0.35

Substance | substrate phage enrichment score
SSCNFRR | 8.67
YQAAHHH | 0.516
CFEGVLN | > 32
SSNCSLS | 1.18
RPTSKSP | > 36
NRMPRSP | 0.611
YSDCQCR | > 33
GCADNVR | > 24
VAAHHHH | 0.65
DARWEIY | > 25
PVTQAIP | > 78
MDSRHGY | > 29
CSKLRTH | 3.8
QCSYWVT | 6.33
IGCNRRT | 0.929
AKGPLGT | 1.73
CMAAHHH | 0.865
RNRNNKN | 8
TRGCLQG | 4
AVNLCGG | > 33
TAQTNRL | 0.85
VNEWRST | > 25
TNCVNKG | 0.667
TASGARG | > 130
NQLFNAG | > 52

Substance | substrate phage enrichment score
HEQAPNK | > 31
DHAAAHH | 0.222
RKYCVPD | 0.167
LTIEKQQ | 0.917
WGSQDTQ | > 26
CSGNKPP | 2
QAGALHD | 0.46
SRYQRSG | 1.38
PTREAAH | 18.8
CSYRKPS | > 28
HHHHGAA | 0.785
SLSCGGL | 2.94
LDHSGVA | > 34
ESRARLQ | > 88
KHGNLSE | > 45
LRDAVTI | 1.54
SMQCIGP | > 78
NRGAYHS | 5.21
KRQPPGA | > 142
ATKGDRL | 1.2
TTTKRCS | 13
RLMSDCR | 4
KEEYQTK | 0.474
NPSYENR | 5
SSQDNLN | 1.67

Substance | substrate phage enrichment score
NHFGELK | 0.278
PTRWSAR | 2.88
SEAKASA | 1.13
TKDESLF | 1.85
YMQSPSQ | 3.17
SSQPCRQ | > 687
ACSVGMQ | > 38
HALLQSG | > 48
PKECPTS | 7.67
SPTPVLQ | 61.5
VEPPLNF | 2.07
ATSAHHH | 1.5
RVADTES | 11
PMAPSTH | 0.789
HKTLLSA | > 26
GDDKFRI | 6.73
STNGGYS | 0.407
VKCSLCD | > 57
VCFQGGS | 1.69
NECVNYR | 0.375
EKPSITS | > 22
SYLRGCA | > 22
NTWPSLQ | 4.2
SQNEHLQ | 1.27
DLLRGQC | > 21

Substance | substrate phage enrichment score
VETPDSL | 0.704
PCSEAAH | 8.5
EVKATLH | 16.3
TEFTLND | 0.588
SEGVGIP | > 31
RDAAAHH | 1
CTKWSAG | > 22
SAAAPNH | 0.929
CKRTMLQ | > 34
NGLSGSN | 4.43
NTPSTKD | 42.7
TERADTL | > 26
PRNESCR | > 22
CPVKQRD | 2
MNQSLLQ | > 30
HFPRCTA | 4.88
WPAAQLQ | > 76
KNERYRS | 0.5
QVRETPI | 3
DQLCEPR | > 37
SRLQYGS | > 29
QAPTRPN | 14
EKRTRLQ | > 22
ARTGTPP | 2.95
MRPAVKS | 8.83

Substance | substrate phage enrichment score
HTYRECL | 5.25
PNHHKEC | 0.8
CAELKYQ | > 41
VGQSYSP | > 41
MSDPRLK | > 22
PRAVLQC | > 141
TEPAHLR | > 21
NPPMQGW | > 28
QGAAHHH | 2.43
AKYQPLR | > 53
LSHSLGK | > 21
YLTESDG | > 35
SAAVHHH | 1.27
TESSCNL | 2.14
EYFQGGS | 0.7
SDSPIRY | 2.44
PTAYGLQ | 2
